# The whole screen tested about 410,000 compounds, of which about 7,200 (1.8%) were called active. The shares of active, inactive and inconclusive entries below differ from those in the screen. The call rests on the fitted dose curve; in most records, active means well fitted activation curve with a large enough effect; inconclusive means small, poorly fitted or top-dose-only effect, or another doubt; inactive means no such curve, though single readings can be large or run the other way. No potency is given beside an inconclusive call; the fits are too rough.
# Assay: qHTS of TDP-43 Inhibitors; further: nearly all actives have a fitted effect of over 50% in size; on growth rescue (activation): % of control where 0% means no effect
# Conditions: TDP-43 expressing yeast growth rescue, BacTiter-Glo, 24 h; growth rescue (activation): at 46.1 µM (top of the series) unless noted
# Procedure, shortened: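 Readout is BacTiter-Glo luminescence of cell growth, so inhibitors register as activators. TDP-43-expressing yeast at OD600=0.02 in galactose medium, after raffinose pregrowth to mid-log, were incubated with compound for 24 hr at 30 deg C.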
# Potency means the concentration at half of the fitted maximal effect; tags describe the fitted curve by direction and shape.
Structure (SMILES),Potency,growth rescue (activation)
Cc1ccc(S(=O)(=O)CC(=O)Nc2ccc3nc(C)sc3c2)cc1,"inconclusive [activator, single point]",–
NS(=O)(=O)c1ccc(Nc2c([N+](=O)[O-])cncc2[N+](=O)[O-])cc1,inactive,–
O=C(Nc1oc2ccccc2c(=O)c1-c1ccc(Br)cc1)c1ccco1,"inconclusive [activator, single point]",–
CCOC(=O)/C(=N\Nc1ccc(Br)cc1)N1CCN(c2ccccc2OC)CC1,"inconclusive [activator, full curve]",–
Cc1ccc(C2=CC(c3ccccc3C)n3c(nc4ccccc43)N2)cc1 (centres undefined),active: 10 µM,–
Cc1onc(-c2ccccc2Cl)c1C(=O)NCCCc1ccccc1,"inconclusive [activator, partial curve]",–
FC(F)(F)c1ccccc1NC(=S)Nc1cccc(Cl)c1,"inconclusive [activator, partial curve]",–
CCc1ccc(OCC(=O)Nc2ccc3oc(=O)ccc3c2)cc1,"inconclusive [activator, partial curve]",–
Cc1nn(C(C)(C)C)c(OC(=O)c2ccco2)c1Sc1ccccc1,"inconclusive [activator, partial curve]",–
CN(c1ccccc1)S(=O)(=O)c1cccc(NC(=O)Cc2n[nH]c(=O)c3ccccc23)c1,"inconclusive [activator, partial curve]",–
O=C(N/N=C\c1ccco1)Nc1cccc(Cl)c1,"inconclusive [activator, single point]",–
O=C(CCC1CCCC1)Nc1ccon1,"inconclusive [activator, partial curve, poor fit]",–
Cc1[nH]nc(-c2ccc(OCc3cnn(-c4ccccc4)c3)cc2O)c1Oc1ccc(Cl)cc1,inactive,–
CC/C(=N\NC(=S)NC(C)C)c1ccc(OC(F)F)cc1,"inconclusive [activator, single point]",–
COc1ccccc1NC(=O)c1sc2nc3c(c(C(F)(F)F)c2c1N)CN(C(C)=O)CC3,"inconclusive [activator, full curve, poor fit]",–
COc1ccccc1[C@@H]1C(c2ccccc2)=NN(c2ccc(Br)cc2)[C@H]1C(=O)N1CCOC1=O,"inconclusive [activator, single point]",–
COc1ccc(OC)c(NC(=S)N2CCc3ccccc3C2)c1,"inconclusive [activator, partial curve]",–
O=C(N/N=C/C=C\c1ccccc1[N+](=O)[O-])c1ccccn1,"inconclusive [activator, single point]",–
Cc1cccc(NC(=S)/N=C(\N)Nc2nc(C)c3ccc(C)cc3n2)c1,"inconclusive [activator, single point]",–
CCOC(=O)c1cccc(C2=CC(=O)C[C@H](c3ccc(OC)c(OC)c3)C2)c1,active: 22.4 µM,–
COc1ccc(NC(=O)Cn2c(=O)cc(C)c3c(C)nn(C)c32)cc1,"inconclusive [activator, partial curve]",–
Cc1ccc(Cl)cc1N1CCN(C(=O)c2cnn(C(C)(C)C)c2C2CCN(C(=O)OC(C)(C)C)CC2)CC1,inactive,–

Structure (SMILES),Potency,growth rescue (activation)
CNC(=S)N/N=C/c1cn(CCOc2ccc(OC)cc2)c2ccccc12,"inconclusive [activator, partial curve]",–
CC(OC(=O)Cc1ccc(Cl)cc1)C(=O)NCCC1=CCCCC1 (centres undefined),"inconclusive [activator, single point]",–
Cc1sc2ncnc(N3CCN(c4ncccn4)CC3)c2c1C,"inconclusive [activator, single point]",–
Nc1nc(/C=C/c2cccnc2)nc(-c2ccccc2O)n1,"inconclusive [activator, partial curve]",–
O=C1NC(=S)S/C1=C\C=C\c1ccc([N+](=O)[O-])o1,–,inconclusive: -93.1% [activator]
O=c1c2ccccc2nc2n1C(CBr)CN2 (centres undefined),inactive,–
COc1ccc(N2CCN(C(=O)C3CCN(Cc4nc(-c5ccc(Cl)cc5)oc4C)CC3)CC2)cc1,inactive,–
Cc1ccc2c(C)ccc(O)c2n1,"inconclusive [activator, partial curve]",–
COc1cc(C2C(=O)N(C3CCCCCC3)CC(=O)N2Cc2ccccc2)ccc1OC(C)C (centres undefined),inactive,–
CCc1cc(C(=O)NNC(=S)Nc2cc(C)ccc2C)cs1,"inconclusive [activator, full curve, poor fit]",–
COC(=O)/C=C/c1cnc[nH]1,"inconclusive [activator, partial curve]",–
O=C(Cn1cc(SCc2ccc(Br)cc2)c2ccccc21)N1CCCCC1,inactive,–
O=C(Nc1c(C(=O)c2ccc(Cl)cc2)oc2ccccc12)c1cc(=O)c2ccccc2o1,inactive,–
CC(C)CN1CCNC(=O)C1CC(=O)NCCc1cnn(-c2ccccc2)c1 (centres undefined),inactive,–
Nc1ccc(C(=O)c2cccs2)cc1[N+](=O)[O-],"inconclusive [activator, partial curve]",–
O=S(=O)(/C=C/c1ccccc1)NC1CCCCCCC1,"inconclusive [activator, single point]",–
COc1ccc(Cl)cc1C(=O)N(Cc1nc(-c2cccc(C)c2)no1)C(C)C,"inconclusive [activator, partial curve]",–
Cc1ccc2ccc(C(Nc3ccccc3)c3ccc(C(C)C)cc3)c(O)c2n1 (centres undefined),"inconclusive [activator, single point]",–
CCc1nnc(NC(=O)CCN2C(=O)c3ccccc3C2=O)s1,"inconclusive [activator, partial curve, poor fit]",–
O=C(c1ccc(Cl)cc1Cl)C1(n2cncn2)Oc2ccccc2C1O (centres undefined),"inconclusive [activator, full curve, poor fit]",–
O=C(COc1ccccc1)Nc1ccccc1C(=O)NCc1ccco1,active: 20 µM,–
CC1CCCCC12NC(=O)N(CC(=O)Nc1ccccc1F)C2=O (centres undefined),inactive,–

# — PubChem BioAssay AID652104 (National Center for Advancing Translational Sciences (NCATS), 2013)
